Experimental data from PubChem BioAssay AID652104 (National Center for Advancing Translational Sciences (NCATS), 2013).
About 7,200 (1.8%) of roughly 410,000 compounds were called active. Inconclusive results, whose numbers are uncertain, are shown with a selection of clear calls. The call rests on the fitted dose curve; in most records, active means well fitted activation curve with a large enough effect; inconclusive means small, poorly fitted or top-dose-only effect, or another doubt; inactive means no such curve, though single readings can be large or run the other way. No potency is given beside an inconclusive call; the fits are too rough.

Experiment: qHTS of TDP-43 Inhibitors; further: nearly all actives have a fitted effect of over 50% in size; on growth rescue (activation): % of control where 0% means no effect
Settings: TDP-43 expressing yeast growth rescue, BacTiter-Glo, 24 h; growth rescue (activation): at 46.1 µM (top of the series) unless noted
Method in brief: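 In this qHTS, compounds that restore growth of yeast expressing TDP-43 appear as activators. Cells (OD600=0.02, galactose medium, raffinose-pregrown) are incubated with compound 24 hr at 30 deg C and growth is quantified by BacTiter-Glo.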
Potency means the concentration at half of the fitted maximal effect; tags describe the fitted curve by direction and shape.

Row | SMILES | Potency | growth rescue (activation)
1 | CC1CCCC(NC(=O)COC(=O)[C@@H](NC(=O)c2ccc(F)cc2)C(C)C)C1C (stereo partly drawn) | inconclusive [activator, single point] | 
2 | O=C(NCCc1ccccc1)c1ccccc1NS(=O)(=O)N1CCCC1 |  | inactive: -9.62%
3 | COc1ccccc1C(=O)c1c(N)c(-c2nc(-c3ccccc3)cs2)c2ccccn12 |  | inactive: 13.9%
4 | CCCCN(CC)C(=O)CCn1c(=O)c2cccn2c2cccnc21 | inconclusive [activator, partial curve] | 
5 | COc1ccc(Cl)cc1NC(=O)CN(C)C(=O)c1cc2ccccc2cc1OC | inconclusive [activator, single point] | 
6 | C=CCn1cc(Cl)cc(C(=O)Nc2ccccc2)c1=O | inconclusive [activator, single point] | 
7 | CC(=O)N(Cc1cccnc1)c1nc2ccc(F)cc2s1 | inconclusive [activator, full curve, poor fit] | 
8 | CO/C([O-])=N/c1c[n+](-c2ccc(Cl)cc2)no1 | inconclusive [activator, full curve, poor fit] | 
9 | Cc1ccc(F)c([C@H]2[C@@H]3C=CCC[C@@]3(C)C(=O)N2Cc2ccccc2)c1 |  | inactive: 5.37%
10 | Clc1cccc(N2CCN(c3ncnc4c3nc3n4CCCC3)CC2)c1 | active: 15.8 µM | 
11 | Cc1cccc(-c2noc(CNC(=O)c3ccco3)n2)c1 | inconclusive [activator, partial curve] | 
12 | Cc1nc2c(Br)cc(Br)cc2cc1O | inconclusive [activator, single point] | 
13 | CC(C)c1ccc(Nc2ncc3c(n2)CCN(C(=O)Nc2ccc(F)c(Cl)c2)C3)cc1 | inconclusive [activator, single point] | 
14 | CCc1cccc(NS(=O)(=O)c2ccc3c(c2)oc(=O)n3C)c1 | inconclusive [activator, partial curve, poor fit] | 
15 | CCN1CCOC(=O)C1CC(=O)Nc1cccc(OC)c1 (stereo not drawn) |  | inconclusive: -93.4% [activator]
16 | COc1ccc(OC)c(NC(=O)Cn2nc(C)c3ccccc3c2=O)c1 |  | inactive: -3.15%
17 | O=C(CNC(=O)c1ccc(Br)o1)OCc1ccc(Br)cc1 | inconclusive [activator, partial curve] | 
18 | Cc1ccccc1NC(=O)CCC(=O)N/N=C/c1cc([N+](=O)[O-])ccc1O | inconclusive [activator, single point] | 
19 | CCOC(=O)CSc1nc(N2CCOCC2)c2c(c1C#N)CC(C(C)C)OC2 (stereo not drawn) | inconclusive [activator, partial curve] | 
20 | O=[N+]([O-])c1ccc(C=NN2CCNC2=S)o1 | inconclusive [activator, single point] | 
21 | N=c1ccn2c(n1)O[C@H]1[C@@H](CO)[C@H](O)O[C@H]12 | inconclusive [activator, partial curve] | 
22 | Cc1ccccc1NC1=C/C(=N\S(=O)(=O)c2ccc(C(=O)O)cc2)c2ccccc2C1=O | inconclusive [activator, single point] | 
23 | CC1CCCN(C(=O)c2cccc(S(=O)(=O)Nc3cc(C(F)(F)F)ccc3Cl)c2)C1 (stereo not drawn) | inconclusive [activator, partial curve] | 

Row | SMILES | Potency | growth rescue (activation)
24 | O=C1CCCCCN1Sc1ccccc1 | active: 15.8 µM | 
25 | CSc1ccccc1NC(=O)COc1ccccc1C | inconclusive [activator, single point] | 
26 | Nc1ccccc1C(=O)NCc1ccc(Cl)cc1 | inconclusive [activator, partial curve, poor fit] | 
27 | Cc1cc(C)c(NC(=O)Cn2c(=O)n(CCc3ccccc3)c(=O)c3ccccc32)c(C)c1 | inconclusive [activator, full curve, poor fit] | 
28 | CC(C)(C)c1ccc(C(=O)NC(=S)Nc2sc3c(c2C#N)CCC3)cc1 | inconclusive [activator, full curve, poor fit] | 
29 | CCOC(=O)c1cnc(Nc2ccccc2)nc1C(F)(F)F | active: 17.8 µM | 
30 | O=C(Nc1ccccc1-c1ccccc1)c1ccccc1 | inconclusive [activator, partial curve] | 
31 | COc1cc(C=C2C(=O)c3ccccc3C2=O)cc(OC)c1OC | inconclusive [activator, full curve] | 
32 | O=c1cc2c(nn1Cc1cccc(Cl)c1)-c1ccccc1CC2 | inconclusive [activator, single point] | 
33 | CCCCn1nc(C(=O)NCC2COc3ccccc3O2)c2ccccc2c1=O (stereo not drawn) | inconclusive [activator, single point] | 
34 | COc1ccc(CN2C(=O)[C@@H]3C(c4ccccc4Cl)=NO[C@@H]3C2=O)cc1 | inconclusive [activator, partial curve] | 
35 | Cc1cccc(-c2nc(SCC(=O)NCC3CCCO3)c3c(=O)n(C)c(=O)n(C)c3n2)c1 (stereo not drawn) |  | inactive: 5.57% [at 9.22 µM]
36 | Cc1ccccc1N(C)C(=O)c1noc2c1COc1ccccc1-2 | inconclusive [activator, single point] | 
37 | Cc1ccccc1NC(=O)N1CCCC(c2nc(-c3ccc(F)cc3)no2)C1 (stereo not drawn) | inconclusive [activator, single point] | 
38 | COc1ccc(CNC(=O)COC(=O)C2CC3C=CC2C3)cc1 (stereo not drawn) | inconclusive [activator, partial curve, poor fit] | 
39 | O=[N+]([O-])c1ccc2c(c1)C(N1CCOCC1)/C(=C/COc1ccc(F)cc1)O2 (stereo not drawn) | inconclusive [activator, single point] | 
40 | C#CCn1c(/C=C/c2ccc(Cl)cc2)nc2ccccc21 | active: 35.5 µM | 
41 | CCN(CC)CCCNC(=O)CCCn1c(=O)[nH]c2ccc(Br)cc2c1=O |  | inactive: 9.03%
42 | COc1ccc(CC(=O)O/N=C(\N)c2ccc(OC)cc2)cc1 | active: 17.8 µM | 
43 | Cc1onc(-c2ccccc2)c1C(=O)OCC(=O)Nc1ccc(OC(F)(F)F)cc1 | active: 15.8 µM | 
44 | Cc1c(OCC(=O)NC(Cc2ccc(Cl)cc2)C(=O)O)ccc2c1oc(=O)c1ccccc12 (stereo not drawn) | inconclusive [activator, partial curve] | 
45 | COc1ccc(NC(=O)CCNC(=O)C2CCN(S(=O)(=O)c3ccc(OC)cc3)CC2)cc1 | inconclusive [activator, single point] | 
46 | Cc1ccc(S(=O)(=O)N2CCN(C(=O)CN3CCOCC3)C2c2ccccc2)cc1 (stereo not drawn) |  | inactive: -10.3%

Row | SMILES | Potency | growth rescue (activation)
47 | CC1CCCCN1C(=O)CCC(=O)Nc1nnc(C(F)(F)F)s1 (stereo not drawn) |  | inactive: 22.1%
48 | Cc1ccc(S(=O)(=O)N(C)C)cc1NC(=S)N(CCC#N)Cc1cccnc1 |  | inactive: -14%
49 | Cc1cc(C)c(O)c(NC(=S)NC(=O)Cc2ccccc2)c1 | inconclusive [activator, partial curve] | 
50 | O=C(COc1ccc(Cl)cc1)NCCc1csc(-c2ccc(C(F)(F)F)cc2)n1 | inconclusive [activator, partial curve] | 
51 | O=C(c1c(Cl)cccc1Cl)N1CCCCCC1 | inconclusive [activator, partial curve, poor fit] | 
52 | O=S(=O)(c1ccccc1F)N(Cc1ccco1)Cc1nnc(-c2ccccc2Br)o1 | inconclusive [activator, single point] | 
53 | COc1ccc(-c2nn(-c3ccccc3)cc2/C=C/C(=O)N2CCN(c3ccccn3)CC2)cc1 | inconclusive [activator, single point] | 
54 | O=C(NC1CCCC(C(F)(F)F)C1)c1ccc([N+](=O)[O-])o1 (stereo not drawn) | inconclusive [activator, single point] | 
55 | CCNC(=S)N/N=C/c1cc(C)ccc1C |  | inactive: 22.3%
56 | O=S(=O)(Nc1ccc2c(c1)OCCO2)c1ccc(F)c(F)c1 | inconclusive [activator, single point] | 
57 | CC(c1nccs1)N(C)C(=O)CCc1nnc(-c2ccc(-c3ccccc3)cc2)o1 (stereo not drawn) | inconclusive [activator, single point] | 
58 | O=C(Nc1cc(Cl)cc(Cl)c1)c1ccc(F)c(S(=O)(=O)N2CCCC2)c1 | active: 17.8 µM | 
59 | CCCC(=O)Oc1c(Sc2ccc(C)cc2)c(C)nn1-c1ccccc1 | active: 11.2 µM | 
60 | COC(=O)c1ccc2nc(-c3cccc(Cl)c3)c(Cc3ccccc3OC)n2c1 | active: 35.5 µM | 
61 | COc1ccc(Cn2c(CCC(=O)Nc3ccc(Br)c(C)c3)nc3cccnc32)cc1 | inconclusive [activator, partial curve] | 
62 | COC(=O)c1ccc(-n2c(C)cc(C(=O)CSc3ccc(NC(C)=O)cc3)c2C)cc1 |  | inactive: -0.139%
63 | Cc1ccccc1NC(=O)Cc1nc(COC(=O)Cc2ccccc2F)cs1 | inconclusive [activator, single point] | 
64 | CCCc1cc(C(=O)NCc2cccnc2)no1 | inconclusive [activator, single point] | 
65 | CN(C)c1ccc(C(=O)Nc2sc(Nc3ccccc3)nc2C(N)=O)cc1 | inconclusive [activator, full curve] | 
66 | O=C(Nc1cccc(Br)c1)Nc1nc2c(s1)CCCCCC2 | inconclusive [activator, partial curve] | 
67 | CCn1cc(C(=O)OCC(=O)c2cc(C)n(-c3ccccc3F)c2C)c(=O)c2ccc(C)nc21 | inconclusive [activator, single point] | 
68 | Cn1cccc1Cc1nnc(SCC(=O)NCC2CCCO2)n1C (stereo not drawn) | inconclusive [activator, partial curve] | 
